In patent US11903917B2, “MEK-inhibitor for the treatment of viral and bacterial infections” (priority 2017, dated 2024):

Test system: MRSA strain S. aureus (USA300)
Experiment: Cell-free culture bacterial growth (OD600)
Settings: Staphylococcus aureus, 6 h, read-out: concentration needed to inhibit 50% of bacterial growths
Procedure: Bacterial growth was monitored for 360 minutes.
For investigation of the concentrations of PD-0184264 needed to inhibit bacterial growth, PD-0184264 was administrated in different concentrations (as indicated in FIG. 3) to an over-night culture of S. aureus USA300 (MRSA). MRSA bacteria were incubated with different concentrations of the MEK inhibitor ranging from 0-100 μM and bacterial growth was monitored six hours after cultivation. The concentration needed to inhibit 50% of bacterial growths was in the range of 15-25 μM.

O=C(O)c1ccc(F)c(F)c1Nc1ccc(I)cc1Cl [PD-0184264, 2-(2-chloro-4-iodophenylamino)-N-3,4-difluoro benzoic acid]
IC50: 15 to 25 µM
